Measured values: patent US8877771B2, “Treatment of solid tumors with rapamycin derivatives” (Novartis Pharmaceuticals Corporation, priority 2001, dated 2014)

What was measured:
[1] = tested on: CA20948 rat pancreatic tumors; assay: Activity in CA20948 rat pancreatic tumors; type: in vivo, male Lewis rats; details: compared to vehicle controls
Protocol: • Fragments of A549 tumors (approx. 25 mg; derived from Cell line CCL 185, ATCC, Rockville Md., USA) are transplanted subcutaneously into the left flank of BALB/c nude mice. Treatment is started on day 7 or day 12 following tumor transplantation. The compound to be tested is administered p.o. once per day from day 7/12 to day 38/55, respectively. […] B.2 Activity in KB-31 Human Epidermoid Tumor Xenografts • Fragments of KB-31 tumors (approx. 25 mg; derived from the cell lines obtained from Roswell Park Memorial Institute Buffalo, N.Y., USA) are transplanted subcutaneously into the left flank of BALB/c nude mice. Treatment is started on day 7 or on day 10 following tumor transplantation. The compound to be tested is administered p.o. once per day from day 7/10 to day 25/35, respectively. […] B.3 Activity in CA20948 Rat Pancreatic Tumors • Tumors are established in male Lewis rats by subcutaneous injection of CA20948 tumor cell suspension derived from donor rats into the left flank. Treatment is started on day 4 post inoculation. The compound to be tested is administered p.o. once per day (6 days a week) from day 4 to day 9-15 post inoculation. Antitumor activity is expressed as TIC % as indicated above.

[2] = tested on: human NCI H-596 lung tumor model; assay: Human NCI H-596 lung tumor model; type: in vivo; details: daily 2.5 mg/kg
[3] = tested on: human MEXF 989 melanoma tumor model; assay: Human MEXF 989 melanoma tumor model; type: in vivo; details: daily 5 mg/kg
[4] = tested on: orthotopic mouse B16/BL6 melanoma tumor model; assay: Orthotopic mouse B16/BL6 melanoma tumor model; type: in vivo; details: 5 mg/kg daily
[5] = tested on: multi-drug resistant (MDR) human KB-8511 epidermoid tumor model; assay: Multi-drug resistant human KB-8511 epidermoid tumor model; type: in vivo; details: 2.5 mg/kg daily
[6] = 4-week toxicity study in rats; type: in vivo
Excerpt: (§1) Rapamycin or derivatives thereof are well tolerated at dosages required for use in accordance with the present invention.

[7] = 4-week toxicity study in monkeys; type: in vivo
Excerpt: as §1

[8] = tested on: human KB-31 epidermoid tumors; assay: Combination with doxorubicin in KB-31 tumors; details: 21 days; Compound A 2.5 mg/kg p.o. once per day alone
[9] = tested on: B16/BL6 primary tumor and cervical lymph node metastases; assay: Combination with an antiangiogenic agent (B16/BL6); type: in vivo, C57BL/6 mice
[10] = daily, antiangiogenic agent 100 mg/kg p.o., Compound A 1 mg/kg p.o., alone or combined

SMILES | rate of CA20948 pancreatic tumor growth [1] | final T/C [2] [%] | final T/C [3] [%] | final T/C (cervical lymph node metastases) [4] [%] | final T/C (primary tumor) [4] [%] | final T/C [5] [%] | NTEL [6] [mg/kg/day] | NTEL [7] [mg/kg/day] | T/C [8] [%] | cervical lymph node weights (regional metastases), T/C [9, 10] [%] | size of the primary tumor, final T/C [9, 10] [%] | treated/controls ratio, metastases (interaction analysis) ([9]; metastases) | treated/controls ratio, primary tumors (interaction analysis) ([9]; primary tumors)
CO[C@H]1C[C@@H]2CC[C@@H](C)[C@@](O)(O2)C(=O)C(=O)N2CCCC[C@H]2C(=O)O[C@H]([C@H](C)C[C@@H]2CC[C@@H](OCCO)[C@H](OC)C2)CC(=O)[C@H](C)/C=C(\C)[C@@H](O)[C@@H](OC)C(=O)[C@H](C)C[C@H](C)/C=C/C=C/C=C/1C [Compound A, 40-O-(2-hydroxyethyl)-rapamycin] | significantly and consistently decreases | 18 | 9 | 36 | 20 | 28 | 0.5 | 1.5 | 32 |  |  |  | 
Clc1ccc(Nc2nnc(Cc3ccncc3)c3ccccc23)cc1 [antiangiogenic agent] |  |  |  |  |  |  |  |  |  | 34 | 65 | 0.337 | 0.66
